From the antibiotic and cytotoxicity screens of Wong et al. (2023)
The list shows a part of the results.

How the values were obtained:
HSkMC = human skeletal muscle cells; assay: cytotoxicity call (relative viability < 0.9); details: 10 µM
HepG2 = assay: cytotoxicity call (relative viability < 0.9); details: 10 µM
S. aureus RN4220 = assay: growth inhibition call (relative growth <= 0.2); details: 50 µM

CC(C)NC(=O)Nc1cccc2c1O[C@H](CN(C)Cc1ccc(Oc3ccccc3)cc1)[C@H](C)CN([C@H](C)CO)C2=O
inactive: cytotoxicity call (HSkMC) | cytotoxicity call (HepG2) | growth inhibition call (S. aureus RN4220)

C[C@@H]1CCCCO[C@H](CN(C)C(=O)NC2CCCCC2)[C@@H](C)CN([C@H](C)CO)C(=O)c2cc(NC(=O)Nc3ccc4c(c3)OCO4)ccc2O1
inactive: cytotoxicity call (HSkMC) | cytotoxicity call (HepG2) | growth inhibition call (S. aureus RN4220)

C[C@@H]1CCCCO[C@@H](CN(C)C(=O)Nc2ccccc2)[C@H](C)CN([C@H](C)CO)C(=O)c2cc(NS(=O)(=O)c3ccccc3)ccc2O1
inactive: cytotoxicity call (HSkMC) | cytotoxicity call (HepG2) | growth inhibition call (S. aureus RN4220)

COc1ccc2c3c([nH]c2c1)[C@H](CO)N(C[C@]13CCN(CC1)C(=O)Nc1cccc(c1)F)C(=O)c1ccccc1
inactive: cytotoxicity call (HSkMC) | cytotoxicity call (HepG2) | growth inhibition call (S. aureus RN4220)

C[C@H](CO)N1C[C@H](C)[C@H](CN(C)C(=O)Nc2cccc3ccccc23)Oc2ccc(NS(=O)(=O)c3cccs3)cc2C1=O
inactive: cytotoxicity call (HSkMC) | cytotoxicity call (HepG2) | growth inhibition call (S. aureus RN4220)

COc1ccc(NC(=O)N(C)C[C@H]2Oc3c(NC(=O)c4cnccn4)cccc3C(=O)N([C@H](C)CO)C[C@@H]2C)cc1
inactive: cytotoxicity call (HSkMC) | cytotoxicity call (HepG2) | growth inhibition call (S. aureus RN4220)

CCS(=O)(=O)Nc1ccc2c(c1)C(=O)N(C)[C@H]1CC[C@@H](CC(=O)N[C@H]3CCN(Cc4ccccc4)C3)O[C@@H]1CO2
inactive: cytotoxicity call (HSkMC) | cytotoxicity call (HepG2) | growth inhibition call (S. aureus RN4220)

C[C@@H]1CN([C@H](C)CO)C(=O)CCCn2cc(nn2)CO[C@H]1CN(C)S(=O)(=O)c1ccc(C#N)cc1
inactive: cytotoxicity call (HSkMC) | cytotoxicity call (HepG2) | growth inhibition call (S. aureus RN4220)

C[C@@H]1CN([C@@H](C)CO)C(=O)c2cc(NC(=O)Cn3cnnn3)ccc2O[C@@H]1CN(C)C(=O)NC1CCCCC1
inactive: cytotoxicity call (HSkMC) | cytotoxicity call (HepG2) | growth inhibition call (S. aureus RN4220)

C[C@@H]1CN([C@@H](C)CO)C(=O)c2cc(NC(=O)Nc3ccc(F)cc3)ccc2O[C@@H](C)CCCCO[C@H]1CN(C)C(=O)Cc1ccccc1
inactive: cytotoxicity call (HSkMC) | cytotoxicity call (HepG2) | growth inhibition call (S. aureus RN4220)

NCC[C@H]1CC[C@@H](NC(=O)C2CCCC2)[C@H](CO)O1
inactive: cytotoxicity call (HSkMC) | cytotoxicity call (HepG2) | growth inhibition call (S. aureus RN4220)

CC(=O)N1[C@H](Cn2cncn2)C[C@H]2CN(C(N)=O)CC[C@H]21
inactive: cytotoxicity call (HSkMC) | cytotoxicity call (HepG2) | growth inhibition call (S. aureus RN4220)

C[C@@H]1CN([C@@H](C)CO)C(=O)Cc2cc(NC(=O)Nc3ccc4c(c3)OCO4)ccc2O[C@H]1CN(C)C(=O)Nc1cccc2ccccc12
inactive: cytotoxicity call (HSkMC) | cytotoxicity call (HepG2) | growth inhibition call (S. aureus RN4220)

C[C@@H]1CN([C@@H](C)CO)C(=O)c2cc(NS(C)(=O)=O)ccc2O[C@@H](C)CCCCO[C@@H]1CN(C)S(=O)(=O)c1ccccc1
inactive: cytotoxicity call (HSkMC) | cytotoxicity call (HepG2) | growth inhibition call (S. aureus RN4220)

CC(=O)O[C@H](C[C@H](O)[C@@](C)(CCC=C(C)C)O[C@H]1O[C@@H](CO)[C@@H](O)[C@@H](O)[C@@H]1O)/C(C)=C/COC[C@@H](O)[C@@H](O)[C@@H](O)[C@@H](O)CO
inactive: cytotoxicity call (HSkMC) | cytotoxicity call (HepG2) | growth inhibition call (S. aureus RN4220)

C[C@@H]1CN([C@@H](C)CO)C(=O)c2cc(NS(C)(=O)=O)ccc2O[C@@H]1CN(C)C(=O)NC1CCCCC1
inactive: cytotoxicity call (HSkMC) | cytotoxicity call (HepG2) | growth inhibition call (S. aureus RN4220)

C[C@H]1CN([C@@H](C)CO)C(=O)Cc2cc(NC(=O)Cn3cnnn3)ccc2O[C@@H]1CN(C)S(=O)(=O)c1ccccc1
inactive: cytotoxicity call (HSkMC) | cytotoxicity call (HepG2) | growth inhibition call (S. aureus RN4220)

COc1cccc(S(=O)(=O)N[C@H]2CC[C@@H](CCn3cc(-c4ccccc4OC)nn3)O[C@@H]2CO)c1
inactive: cytotoxicity call (HSkMC) | cytotoxicity call (HepG2) | growth inhibition call (S. aureus RN4220)
